# Data taken from PubChem BioAssay AID485344 (National Center for Advancing Translational Sciences (NCATS), 2010).
# The whole screen tested about 340,000 compounds, of which about 6,900 (2%) were called active. Cut-off read from the data, not from the text of the source: active = inhibition above about 30%; inactive = below that, where a call was filed. The list shows a part of the results, in another mix than the full data. Entries without a call were filed so in the source.
# Molecular target: D(2) dopamine receptor (Homo sapiens) (UniProt P14416)
# Assay: HTS Assay for Allosteric Antagonists of the Human D2 Dopamine Receptor: Primary Screen for Antagonists; note: 0% is about no effect
# Settings: HEK293 TREx D2 cells, calcium flux, dopamine EC80; at 10 µM; stronger effect = higher value
# Procedure, shortened: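 Cells plated overnight at 30 C with tetracycline; no-wash calcium dye, 30–90 min RT; 10 s baseline; compound pinned; 180 s read; EC80 dopamine added; another 180 s read.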
# Chain of UniProt P14416 (P14416 whole entry, looked up): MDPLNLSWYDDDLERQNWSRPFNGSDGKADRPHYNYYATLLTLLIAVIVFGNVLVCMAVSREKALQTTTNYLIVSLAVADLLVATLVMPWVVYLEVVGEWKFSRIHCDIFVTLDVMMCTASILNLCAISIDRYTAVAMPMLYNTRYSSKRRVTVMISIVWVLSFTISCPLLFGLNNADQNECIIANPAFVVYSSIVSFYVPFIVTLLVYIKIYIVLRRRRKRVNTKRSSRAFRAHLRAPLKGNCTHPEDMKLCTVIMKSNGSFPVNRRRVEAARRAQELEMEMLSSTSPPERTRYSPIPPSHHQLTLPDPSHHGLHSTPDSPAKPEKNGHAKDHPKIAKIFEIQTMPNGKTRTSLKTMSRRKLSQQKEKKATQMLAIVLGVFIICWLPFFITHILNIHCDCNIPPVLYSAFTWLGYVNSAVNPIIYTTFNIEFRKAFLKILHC
row,Structure (SMILES),inhibition
1,Cc1ccc(Cn2c(C)c(CNCc3ccc(OC(C)C)cc3)c(C(=O)O)c2C)cc1,-3.67%
2,COc1ccc(CC(=O)NCCc2sc(-c3cccc(F)c3)nc2C)cc1,-6.88%
3,Cn1c(=O)oc2cc(S(=O)(=O)N3CCC(C(=O)N4CCN(c5cccc(Cl)c5)CC4)CC3)ccc21,-18.3%
4,CCOc1ccc(CCNC(=O)c2ccc(CS(=O)Cc3ccc(Cl)cc3)o2)cc1 (stereo not given),-3.63%
5,Cc1cc(C(=O)NNC(=S)NC(C)c2ccccc2)c2ccccc2n1 (stereo not given),active: 45%
6,CC(=O)N1CCc2cc(Br)cc(S(=O)(=O)CCC(=O)NCCc3ccc(Cl)cc3)c21,7.78%
7,COc1ccc(Cl)cc1NC(=O)Cn1cc(S(=O)(=O)Cc2cccc(Cl)c2)c2ccccc21,1.04%
8,N#C/C(=C\c1ccc(-c2ccc(C(=O)O)cc2)o1)c1nc2ccccc2[nH]1,5.91%
9,CCc1ccccc1Nc1nn2c(=O)c3ccc(C(=O)NCc4ccccc4Cl)cc3nc2s1,-1.94%
10,Cn1nnnc1SCCNCc1ccccc1Cl,3.9%
11,COc1cccc(CNC(=O)CN(C)S(=O)(=O)c2ccc3c(c2)c(=O)n(C)c(=O)n3C)c1,-4.38%
12,CC(C)c1ccc(NC(=O)C(Cc2ccccc2)NS(=O)(=O)c2ccc3c(c2)CCC(=O)N3)cc1 (stereo not given),18.2%
13,Cc1cccc(NC(=S)NCC(c2ccccc2)N(C)C)c1 (stereo not given),active: 38.4%
14,Cc1ccc(OCC(=O)Nc2ccc3nc(SCC(=O)N(C)c4ccccc4)sc3c2)cc1,6.15%
15,COc1ccc(NC(=O)c2sc3nc[nH]c(=O)c3c2C)cc1OC,-6.49%
16,CCN(C(=O)CSc1nc2ccc(O)cc2c(=O)n1-c1ccc(OC)c(OC)c1)C1CCS(=O)(=O)C1 (stereo not given),active: 42.8%
17,Cc1ccc(S(=O)(=O)N2CCN(CC(=O)Nc3ccccc3Cl)CC2)cc1,active: 39.7%
18,Cc1ccc(CSc2nc3c(c(=O)[nH]2)C(c2cccc(F)c2F)CC(=O)N3)cc1 (stereo not given),-10.2%
19,CCOC(=O)c1cc(-c2ccc(OC)cc2)nn1Cc1ccccc1,20.8%
20,COc1ccc(N2CCN(C(=O)c3nn(-c4ccc(C)cc4)c(=O)n(C)c3=O)CC2)cc1,-6.63%

row,Structure (SMILES),inhibition
1,Cc1ccc(C)c(Nc2nnc(-c3ccc(C)c(S(=O)(=O)N4CCCCC4)c3)c3ccccc23)c1,3.54%
2,COc1cc2nc(SCC(=O)Nc3cccc(C)c3)n3nc(-c4ccccc4)nc3c2cc1OC,18.5%
3,COc1ccc(NC(=O)c2c(NC(=O)c3cccc(C)c3)sc3c2CCCC3)cc1,21.7%
4,NC(=O)C1(N2CCCCC2)CCN(CC(=O)Nc2cc(Cl)ccc2Cl)CC1,active: 43.4%
5,CC(=O)c1cccc(NC(=O)c2ccc3nc(C(C)C)oc3c2)c1,24.1%
6,COc1ccc(-c2nc(Cn3c(SCc4ccc(F)cc4)nc4cccnc43)c(C)o2)cc1,-16%
7,COc1cc(NC(=O)CC(C)S(=O)(=O)c2cc3c4c(c2)CCN4C(=O)CC3)cc(OC)c1 (stereo not given),-6.24%
8,Cc1ccccc1C(=O)Nc1cccc(C(=O)OCc2cc(=O)n3nc(C4CC4)sc3n2)c1,-8.44%
9,CC(CCc1ccc(O)cc1)NC1C2CC3CC(C2)CC1C3 (stereo not given),active: 71.4%
10,Cc1ccc(C)c(CN2C(=O)c3ccccc3Sc3ccc(C(=O)NCc4ccc5c(c4)OCO5)cc32)c1,-15.9%
11,COc1ccc(Cn2c(CO)cnc2SCC(=O)NCc2ccco2)cc1,6.99%
12,CC1=CC(c2ccccc2)n2nc(NS(=O)(=O)c3ccc(C)cc3)nc2N1 (stereo not given),active: 121%
13,CCOC(=O)c1[nH]c2ccccc2c1NC(=O)c1cc(OCC)c(OCC)c(OCC)c1,-7.36%
14,Cc1ccc2onc(CC(=O)N3CCN(c4cccc(C)c4C)CC3)c2c1,13.8%
15,Cc1cc(=O)n2nc(N3CCC(C(=O)NCc4ccc(Cl)cc4)CC3)sc2n1,-4.82%
16,Cc1cccc(OCC(O)CN2CCN(c3ccccn3)CC2)c1C (stereo not given),active: 78.2%
17,COc1ccc(-c2noc(CSc3nnc(-c4ccncc4)n3-c3ccc(C)c(C)c3)n2)cc1,-2.42%
18,Clc1ccc(Nc2nc(-c3ccccc3)c3cc(Cl)ccc3n2)cc1,-12.1%
19,Cc1ccccc1NC(=O)Nc1cccs1,-1.41%
20,CC(=O)C1=C(C)OC(N)=C(C#N)C1c1cc2cc(C)c(C)cc2nc1Cl (stereo not given),active: 31.1%

row,Structure (SMILES),inhibition
1,O=C1c2oc3ccccc3c(=O)c2C(c2cccc(Br)c2)N1c1ccccn1 (stereo not given),-22.1%
2,CCCCN(C)C(=O)Cn1cnc2sc(C)c(S(=O)(=O)N3CCN(c4ccccc4OC)CC3)c2c1=O,-8.77%
3,CNC(=O)c1ccc(NC(=O)COc2ccc(-c3nn(C)c(=O)c4ccccc34)cc2)cc1,-2.83%
4,Cc1ccc(OCC(=O)N(Cc2sccc2C)C2CCS(=O)(=O)C2)cc1 (stereo not given),-5.98%
5,CCc1nn(CC(=O)N2CCN(c3cccc(C)c3C)CC2)c(=O)c2cc3sccc3n12,-11.7%
6,CCC(=O)N1CCc2cc(S(=O)(=O)NC(CC(C)C)C(=O)NCc3ccc(C)cc3)ccc21 (stereo not given),9.46%
7,Cc1ccc(O)c(-c2n[nH]c3c2C(c2ccccc2F)N(Cc2ccco2)C3=O)c1 (stereo not given),4.16%
8,O=C(CN1C(=O)S/C(=C\c2cccs2)C1=O)Nc1ccc(C(=O)O)c(O)c1,active: 39.8%
9,Cc1cc2[nH]c(=O)c(=O)[nH]c2cc1S(=O)(=O)Nc1cccc(C(F)(F)F)c1,-5.35%
10,Cc1sc2ncn(CC(=O)N3CCN(c4ccc(F)cc4)CC3)c(=O)c2c1S(=O)(=O)N1CCN(c2ncccn2)CC1,-2.45%
11,COc1cccc(CNC(=O)CCS(=O)(=O)c2ccc3c(c2)CC(C)N3C(=O)C2CC2)c1 (stereo not given),-0.428%
12,O=C(c1cccs1)N1CCN(C(=O)C2CCCO2)CC1 (stereo not given),active: 37.4%
13,COc1cc(Cl)c(C)cc1NC(=O)c1cc2c(s1)-c1c(C)cccc1OC2,-4.42%
14,O=C(NC(CO)C(O)c1ccc([N+](=O)[O-])cc1)C(Cl)Cl (stereo not given),active: 51.9%
15,O=C(Cn1c(=O)nc(-c2ccccc2)c2cc(Cl)ccc21)NCCc1ccccc1,13.7%
16,O=C(c1cccs1)N1CCN(CCCc2ccccc2)CC1,active: 58.8%
17,CC1CN(C2CCCCC2)c2nc3c(c(=O)n(C)c(=O)n3C)n2C1 (stereo not given),active: 38.7%
18,Cc1cc(=O)n2nc(N(C)CC(=O)NCc3ccc(Cl)cc3)sc2n1,0.536%
19,CCc1cccc(NC(=O)CCN2C(=O)c3ccccc3Sc3ncccc32)c1,-12.4%
20,COc1ccc(CN(C(=O)Cc2coc3ccc(C)cc23)C2CCS(=O)(=O)C2)cc1 (stereo not given),8.11%
